Out of some 280,000 compounds screened, about 540 (0.19%) were called active. Inconclusive results, whose numbers are uncertain, are shown with a selection of clear calls. Calls follow the shape of the dose curve; as a rule, active = well fitted activation curve with a large enough effect; inconclusive = small, poorly fitted or top-dose-only effect; inactive = flat fitted curve, though single readings scatter. Potencies beside an inconclusive call are fits to weak or partial responses and may not hold up.
Test: Quantitative High-Throughput Screen for Regulators of Epigenetic Control; also: nearly all actives have a fitted effect of over 60% in size
Details: murine LDR cells, GFP reporter derepression, 30 h; series mostly up to 53.9 µM
Outline: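 Readout is the number of GFP-expressing murine LDR cells, counted by cytometry following washing. Cells were treated with compound for 30 h at 37 C; the stably integrated CMV-GFP locus is normally silent.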
In the case of Cc1cccc(NS(=O)(=O)c2ccc3c(c2)n(C)c(=O)n3C)c1C, the Potency is reported as “inactive”.
With CCC(=O)N1CCc2cc(Br)cc(S(=O)(=O)CCC(=O)N3CCN(c4ccc(OC)cc4)CC3)c21 the Potency was “inactive”.
For Cc1ccc2nc(Nc3ncc4c(n3)CC(C)(C)CC4=O)nc(C)c2c1, the Potency was inconclusive: 35.5 µM [activator, single point].
For Cc1c(NC(=O)c2cc(-n3cnnc3)ccc2Cl)cccc1-c1nc2ccccc2o1, the Potency was inconclusive: 35.5 µM [activator, single point].
With C=CCC1(CC=C)CCCN1Cc1nc(COc2ccccc2)no1 the Potency was inconclusive: 25.1 µM [activator, single point].
With COc1ccc2[nH]c(=O)c(CN(Cc3ccco3)Cc3nnnn3Cc3ccccc3)cc2c1 the Potency was inconclusive: 35.5 µM [activator, single point].
With COc1ccc(N/C=C/C(=O)c2sc(-c3ccccc3)nc2C)cc1 the Potency was “inactive”.
In the case of Cc1ccc(S(=O)(=O)NC(C)C(=O)NC2CCCCCC2)cc1 (stereo not given), the Potency is reported as “inactive”.
For CCN(CC)Cc1c(O)ccc2c(C)c(CC(=O)OC)c(=O)oc12, the Potency was “inactive”.
For CCOc1ccc(-c2cc(CCCC(=O)NCc3ccc(C)cc3)no2)cc1, the Potency was “inactive”.
For Cc1ccc(CN2CCCNC2=O)cc1, the Potency was inconclusive: 3.16 µM [activator, partial curve].
For O=C(Nc1nc2ccc(S(=O)(=O)N3CCCC3)cc2s1)c1ccc(F)cc1, the Potency was inconclusive: 25.1 µM [activator, single point].
In the case of CCN(CC)S(=O)(=O)c1ccc(Nc2nc3ccccc3n3nnnc23)cc1, the Potency is reported as inconclusive: 35.5 µM [activator, single point].
In the case of COc1ccc(Cn2c(SCC(=O)Nc3ccc(OC)cc3)nc3ccccc32)cc1, the Potency is reported as inconclusive: 35.5 µM [activator, single point].
For Cc1ccc(C)c(S(=O)(=O)ON2C(=O)c3ccccc3C2=O)c1, the Potency was inconclusive: 35.5 µM [activator, single point].
For Cc1ccc(S(=O)(=O)n2nc(C)c(S(=O)(=O)N3CCC(C)CC3)c2C)cc1, the Potency was “inactive”.
In the case of O=C(Cn1c(-c2cccs2)cc2cc(F)ccc21)NCCCN1CCN(c2ccccc2F)CC1, the Potency is reported as inconclusive: 11.2 µM [activator, single point].
For CC(NC(=O)c1c2c(nc3ccccc13)C(=O)N(C1CCCCC1)C2)c1ccccc1 (stereo not given), the Potency was “inactive”.
With Cc1sc2nc(CN3CCN(c4ccc(O)cc4)CC3)[nH]c(=O)c2c1C the Potency was “inactive”.
In the case of Cc1c(Cl)cccc1NC(=O)Cn1cc(C(=O)C2CCCCC2)c2ccccc21, the Potency is reported as inconclusive: 31.6 µM [activator, single point].

From PubChem BioAssay AID1865 (National Center for Advancing Translational Sciences (NCATS), 2009)
Potency is read from the fitted curve at half-maximal effect; tags tell the direction and shape of the fitted curve.
